# Experimental data as given in the supplement of paper PMC3334620.
# In all, about 33,000 sequences were measured (“E-score (-0.5 to 0.5)”: median about -0.035, highest 2% from about 0.34 on). Some of the results follow.
# Target: T1, Mot3 (UniProt P54785)
# T1 sequence: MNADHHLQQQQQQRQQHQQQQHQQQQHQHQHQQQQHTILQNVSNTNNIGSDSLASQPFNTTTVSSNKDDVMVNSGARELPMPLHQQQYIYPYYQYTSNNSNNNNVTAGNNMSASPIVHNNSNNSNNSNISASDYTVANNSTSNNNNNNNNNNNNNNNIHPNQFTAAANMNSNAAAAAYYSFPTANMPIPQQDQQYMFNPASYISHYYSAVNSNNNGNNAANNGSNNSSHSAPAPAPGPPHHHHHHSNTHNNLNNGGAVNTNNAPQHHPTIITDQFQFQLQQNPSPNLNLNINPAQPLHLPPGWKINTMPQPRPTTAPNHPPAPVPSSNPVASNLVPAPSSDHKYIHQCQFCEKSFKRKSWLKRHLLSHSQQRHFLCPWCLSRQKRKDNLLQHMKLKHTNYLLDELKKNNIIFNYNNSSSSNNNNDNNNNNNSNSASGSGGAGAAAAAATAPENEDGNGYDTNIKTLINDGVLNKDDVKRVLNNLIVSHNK
# Assay: PBM E-score (8-mer binding enrichment) (E-score (-0.5 to 0.5)); higher = stronger / more preferred TF binding; most listed sequences are background and not binding sites
# Conditions: protein concentration: 200 nM; construct: GST-full length
# Experimental: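 Universal 'all 10-mer' protein binding microarrays (Agilent AMADID 015681) probed with GST-tagged S. cerevisiae TFs (full-length or DBD) made by in vitro transcription/translation (PURExpress), about 100-200 nM. Bound TF was detected with fluorescent anti-GST. Each ungapped 8-mer (which stands for itself and its reverse complement) is scored by the PBM enrichment score (E-score), a modified Wilcoxon-Mann-Whitney statistic from -0.5 to +0.5, computed with the Universal PBM Analysis Suite. Scale: above 0.35 generally sequence-specific binding.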
row,Sequence,PBM E-score
1,TGGCAGAA,0.0168
2,GATCCCCA,-0.114
3,CGAATCTA,-0.0163
4,GTTGCATA,0.0413
5,CTTCCAAG,-0.0526
6,GAGCACAC,-0.0804
7,ATCTCGCG,-0.0186
8,AGTGGTGC,-0.0858
9,GCCTGACC,-0.0985
10,AGGTGAGC,-0.183
11,ACCCCCTG,-0.246
12,AGTGACCG,-0.235
13,GCCTAGGC,0.143
14,CCTGGCTC,0.0598
15,ACGTCTAG,0.101
16,CCGACGAA,-0.00926
17,ACCGTGGA,-0.181
18,CAGTAAGA,-0.00465
19,ACTCACGG,-0.185
20,CGTGGCAG,-0.176
21,GTTAGGGA,-0.113
22,CGCGTGGA,-0.159
23,CGTCATTA,0.152
24,AACCAACA,0.147
25,ATCATCCC,-0.21

row,Sequence,PBM E-score
1,CGTTTATC,-0.0283
2,ACTAAACA,0.139
3,GTCAACCA,0.04
4,ATGACGAC,-0.0743
5,ACCACGCG,0.0395
6,ATAGTGGG,-0.137
7,CATGAACC,0.175
8,CACGTAGC,-0.163
9,CCCCTAAG,-0.313
10,CGTTGCCC,-0.0798
11,GAATTGGA,-0.0738
12,TGACTCCA,-0.239
13,TTAATAAA,0.23
14,AACCGCGT,0.17
15,CACGTTCG,0.00382
16,CTAGGAGA,-0.143
17,CACAGGTC,-0.272
18,ATAGGCCG,0.013
19,GTACTTAA,0.172
20,ATACAAAC,0.135
21,GGCGCCGA,0.126
22,AACGAACA,0.278
23,AGCCTGCC,0.132
24,GAGACCGA,-0.103
25,TCCAAAAA,-0.0317

row,Sequence,PBM E-score
1,CAACGTCA,-0.0141
2,GACCATGC,0.00946
3,GTAATGGA,0.219
4,CCGTCAGG,-0.0484
5,ACTCCTGG,0.0113
6,CCGATACG,-0.168
7,AAGACTTC,-0.0716
8,TAATTTCA,0.0641
9,AGGCTGCG,-0.147
10,CCTGGGCC,-0.217
11,TCATAAGA,0.0222
12,CGCGGTAC,-0.146
13,TACATCCA,0.211
14,ACCGAGTG,-0.196
15,GACTCTAA,-0.0927
16,AGTATTCA,0.00548
17,TCATCCCA,-0.183
18,CCAGTAAA,0.0503
19,CCGGATAG,-0.147
20,AATGCAGC,-0.139
21,GGGGCATA,-0.208
22,ACCAAAAG,0.121
23,ACGCCCGA,-0.216
24,CGAAAAAG,0.142
25,AAAATTTA,0.0524

row,Sequence,PBM E-score
1,GCATCAAC,0.084
2,CCTGTAAG,0.282
3,ACTTCCCA,-0.163
4,CGACCGGA,-0.204
5,GTGGAAGA,-0.00089
6,ACTGGCGG,-0.117
7,GTAAGTCA,0.0347
8,CTAGGTGC,-0.016
9,CGGCCGAC,-0.252
10,ACAGAGAA,0.012
11,TATTGAGA,-0.0398
12,CCTTTAAG,0.193
13,ACCGGCGG,-0.284
14,CAAACCGC,-0.156
15,ACGCGCAA,0.105
16,GTGACTCA,-0.0442
17,ACCACCTG,-0.224
18,GCAGTCAC,0.305
19,AAGGGCTC,-0.132
20,CGATGCCA,-0.177
21,CACTCATA,-0.0651
22,AATTGTTG,0.0681
23,GATAAAGA,-0.0297
24,ACAGATTG,-0.0988
25,CCGTAACA,0.107

row,Sequence,PBM E-score
1,CGGCTGGC,-0.187
2,GCGAAAGC,-0.153
3,AGTACAGG,0.16
4,ATAATGTC,0.115
5,AGCATTTG,0.0978
6,AAAGAAGG,0.0623
7,CCGGGGAG,-0.237
8,ACCAGGGA,-0.053
9,AATCAAGT,0.262
10,ACTAGAAT,-0.0592
11,AACTATGT,0.278
12,ATGTAAGA,0.309
13,ATTTGTCA,0.144
14,ACACGACG,0.309
15,ACTTCCAA,0.0181
16,ATGCACAT,0.207
17,CTACACAG,0.348
18,AACGATTC,-0.107
19,ACTTTCGG,0.0375
20,CAAGTCGG,-0.254
21,CAAAGTAA,0.127
22,ACTTCAAA,-0.105
23,ACCCTTCG,-0.105
24,AATTTGGA,-0.0172
25,CGATATAA,0.112

row,Sequence,PBM E-score
1,AGAATTGG,-0.185
2,CCGGAAAA,-0.0407
3,CCATCCGG,-0.252
4,ACCAATGC,-0.0849
5,AAACACAG,0.274
6,CCCGTTAC,0.0828
7,TCGTCAAA,0.0184
8,AGCGAAGA,-0.176
9,AAGCTCCG,-0.214
10,CTACGGTA,0.0467
11,CTCTTCAA,-0.205
12,ACGAACTA,0.0713
13,ACTAATAG,0.0666
14,TCGGTCCA,-0.0654
15,ATGGCGAC,-0.254
16,GTACTGTA,0.158
17,AAACTGAC,-0.125
18,GATTTTCC,0.192
19,CTTGTTAA,0.355
20,AACTGCCT,0.0139
21,ATCCCCTC,-0.141
22,CGTACGAA,0.0691
23,AAACTGTC,-0.107
24,CGGGGTGC,-0.154
25,AAACTGCT,-0.15

row,Sequence,PBM E-score
1,GAGATGTA,0.208
2,CTGCTGTA,0.0529
3,GAAGAAGA,0.109
4,CCTGCTTA,0.0186
5,TCTGAACA,0.0777
6,GAAACGTC,-0.111
7,CTATTAGA,-0.105
8,ATGGTCTA,-0.205
9,CCAATAGG,0.145
10,AAGGGTTG,0.134
11,CTCGCATA,-0.143
12,ACTAGTCA,-0.181
13,ATACAGAT,0.0248
14,GTGCCAAA,-0.0184
15,CCCGATAC,-0.146
16,CCGGCCCA,-0.301
17,CTACGAAC,0.113
18,AAGTTACC,0.114
19,AAATATCA,0.055
20,AAAATAAA,0.117
21,CGGTCGAC,-0.109
22,GTGTGCGA,-0.0362
23,GTTGAGGA,0.0128
24,ATCGAGTA,0.0643
25,AGTTATGA,-0.113

row,Sequence,PBM E-score
1,TCCACTCA,-0.137
2,CTTTGTGC,0.206
3,ATACCCTC,-0.09
4,CCGCATTA,-0.0268
5,CGGCGAAC,-0.223
6,TGATGCCA,-0.077
7,CGGTTGTA,0.0332
8,ATTCAAAA,0.0615
9,GTTAATTA,0.215
10,CTTTAACA,0.284
11,AGAGTGAT,0.105
12,CGCGGCGA,-0.124
13,AACGGACG,-0.227
14,AGCCGGGA,-0.104
15,ACGGTTCT,-0.0543
16,ATGTCAGC,0.0858
17,ATGTTCTC,0.0354
18,CTACTTTC,0.188
19,CCGGCTCA,-0.162
20,ATGCCGAG,-0.102
21,CTTCTTTA,0.166
22,CACACGAA,0.165
23,AAACCCGC,0.00067
24,ATGGACTA,-0.158
25,CGTATGAA,-0.00092

row,Sequence,PBM E-score
1,ATGCAATC,-0.0367
2,ATTCCAAT,0.113
3,AAGGCGCG,0.252
4,CAGGCCGC,-0.203
5,GTAAATTA,0.292
6,ACCTTCAG,0.195
7,ACCAGAAG,0.0955
8,ACAGACTA,0.0937
9,TGGTTACA,0.126
10,ATACCTTC,0.0827
11,AAATTGGT,-0.00703
12,ATCTTCAG,-0.134
13,GTGTGGCA,-0.236
14,ATTTCCGG,-0.219
15,CTGCCGGA,-0.192
16,GCAGGCTA,-0.0385
17,ACGTGGGC,0.0308
18,CACCTTGG,-0.037
19,ACGCCGAC,-0.0706
